# From ChEMBL document CHEMBL4888484, “Replenishing the malaria drug discovery pipeline: Screening and hit evaluation of the MMV Hit Generation Library 1 (HGL1) against asexual blood stage Plasmodium falciparum ,using a nano luciferase reporter read-out” (2022)
# Out of some 150,000 compounds screened, about 540 (0.36%) showed an effect of 50% or more. The list shows a part of the results.
# Tested on: Plasmodium falciparum
# Assay: Primary screen in NF54 nanoGlo assay, in single point, at 2uM, 72h; a lower Z score goes with more inhibition
# Format: functional, Erythrocyte
# Conditions: timepoint 72 hour
SMILES,% Inhibition [%],Z score
COc1ccccc1[C@@H]1CC(c2ccc(C)c(C)c2)=NN1C(=O)CN1CCC(C)CC1,-3,0.3
Cn1c(C(=O)N2CC[C@@H](NC(=O)c3n[nH]c4c3CCCC4)C2)cc2ccccc21,-14,1.56
O=C(Oc1ccc(Cl)cc1Cc1ccccc1)c1ccc(S(=O)(=O)N2CCOCC2)cc1,-6,0.81
Cc1ccc(NC(=O)NCCCNC(=O)C2CCC2)c(C)n1,-13,1.3
CCn1nccc1NC(=O)NCCCNc1cccnc1,-13,1.68
CC1(C)Cc2ccsc2CN1C(=O)c1cc2n(n1)CCO2,3,-0.44
CC(C)n1cc(C(=O)N(CCOc2ccc(Cl)cc2)Cc2ccco2)cn1,-9,1.28
CC(C)Cn1nccc1-c1nc([C@@H](C)CNC(=O)OC(C)(C)C)no1,-6,1.04
COc1ccccc1NC(=O)N1CCC2(CC1)NC(=O)c1cc(Cl)ccc1N2C,-2,0.28
CC1CNCCN1C(=O)C1CCN(c2ccc(F)c(F)c2)C1=O (stereo not drawn),-4,0.54
COC(=O)c1nc(NC(=O)CCc2c(C)n[nH]c2C)sc1C,-9,1.1
COCCN1CN(c2nccc(C(F)(F)F)n2)CC1=O,-3,0.29
O=C1C[C@H](c2nc(-c3ccc(N4CCOCC4)cc3)no2)CN1C1CCCC1,-6,0.78
CCOc1ccc(NC(=O)CCc2ccc3[nH]cnc3c2)cc1,-16,2.17
C[C@@H](c1ccccn1)N(C)Cc1ccc(C(=O)N(C)C)[nH]1,-7,1.23
Cc1ccc([C@H](CNC(=O)c2cccc(N3C(=O)CCS3(=O)=O)c2)N2CCCCC2)cc1,7,-1.19
CCC1=C(C(=O)Nc2ccccc2)C2CCCC3(C2)N(C(=O)c2ccn(CC)n2)CCCN13 (stereo not drawn),5,-0.59
O=C(NCC[C@H]1CCc2ccccc2N1)c1ccsc1Cl,12,-1.51
CN1C(=O)CC(C(=O)Nc2cc[nH]n2)C1c1ccc(Cl)c(F)c1 (stereo not drawn),-18,2.07
COC(=O)C[C@H](NC(=O)NCc1ccc(N2CCCC2=O)cc1)c1ccccc1Cl,4,-0.82
O=C(COc1ccc(Cl)cc1Cl)Nc1nnc(Cc2nnc(NC(=O)COc3ccc(Cl)cc3Cl)s2)s1,2,-0.37
CCn1nc(C)n2cc(S(=O)(=O)NCc3ccc(F)cc3F)cc2c1=O,11,-1.37
COCCN(CC(=O)O)C(=O)c1nccnc1C(=O)N1CCCCC1,-18,1.89
C[C@@H](C(=O)N1CC(=O)Nc2ccccc21)N1CCCCCC1,0,-0.04
CN=C(NC)NCc1c(F)cccc1F,-3,0.42
OC1(c2ncn(CCOc3cc(Cl)cc(Cl)c3)n2)CCC1,-3,0.47
CNc1ncccc1C(=O)N[C@H](c1ncnn1C)C(C)C,-3,0.46

SMILES,% Inhibition [%],Z score
O=S(=O)(c1ccc(Cl)cc1)N1CCN(C2CCCC2)CC1,32,-1.3
O=C(O)c1ccc(/N=C(\NCCc2ccccc2)N2CCN(C3CCCCC3)CC2)cc1,-13,1.28
O[C@@H](CNc1ccc2ccc(F)cc2n1)CN1CCOCC1,-5,0.87
O=C(c1ccn(C(F)F)n1)N1CCCC[C@@H]1CCc1ccccc1,-8,1.61
Cc1cccc2cc(-c3noc(-c4ccccc4)n3)c(NCCc3ccccn3)nc12,0,-0.01
CC(O)C1CCCCN1S(C)(=O)=O (stereo not drawn),7,-0.87
O=c1nc(-c2ccccc2)ccn1CCOCC(F)(F)C(F)F,-21,2.85
COc1cc(CC(=O)NCc2nnc3nc(C)cc(C)n23)ccc1C,-11,1.87
CC(NC(=O)c1ncccc1Br)C1CCOC1 (stereo not drawn),-12,1.2
CN(C)Cc1cccc(CCNC(=O)c2cc[nH]c2C2CCC2)c1,-10,1.87
N#Cc1ccccc1Oc1ccc(C(=O)Nc2ccccc2)nn1,-4,0.66
COc1ccc(C(OC)C(C)NC(=O)Cc2c(C)[nH]c3ccnn3c2=O)cc1 (stereo not drawn),36,-4.83
CC(C)Cc1nc(CN(C)c2nc(-c3ccncc3)nc3c2CNC3)no1,1,-0.23
O=C(NCCc1ccco1)Nc1cc(C(=O)N2CCCCC2)ccc1Cl,-21,1.93
CCN(C)c1ccccc1NS(=O)(=O)c1sccc1OC,31,-3.51
Cc1noc(CCC(=O)N2CC3(CCCC3)c3cccc(Cl)c32)n1,0,0.07
C[C@@H]1CN(C(=O)c2coc(COc3ccc(F)cc3Cl)n2)C[C@H](C)O1,-16,1.41
CN(CCC(C)(C)O)c1nccc(C2CCCC2)n1,-2,0.39
O=C1[C@@H]2C(c3ccc(Cl)cc3Cl)=NO[C@@H]2C(=O)N1C1CCCCC1,-10,1.27
COc1ccccc1/N=C(/NC(=O)c1cccc(C)c1)N1CCN(C2CCCCC2)CC1,1,-0.12
COCc1nc(Cn2ccc3ncccc3c2=O)no1,-21,2
COc1cc(NS(=O)(=O)c2ccc3c(c2)CCN3S(C)(=O)=O)cc(OC)c1,-10,1.24
Cc1n[nH]c(CN2CCOc3cc(F)c(Br)cc32)n1,0,0.09
NC(=O)COC1CCN(C(C(=O)NC2CC2)c2ccccc2)C1 (stereo not drawn),-10,1.31
COc1ccc(-c2csc3ncnc(NC[C@H]4CCCO4)c23)cc1,-7,0.64
Fc1ccc(-c2n[nH]cc2-c2nnc(-c3ccncc3)o2)cc1,-10,1.9
CC(NC1CCN(C(C)C)C1=O)C1CC1(C)C (stereo not drawn),-18,3.32
